Test results from the supplement of paper PMC9151546.
Most values come without repeats; read them as rough.

Assays:
CHO-K1 [1] = assay: relative survival (nuclei to bead ratio vs DMSO control) (% of vehicle control); higher = more surviving cells
Procedure: (§1)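 Flow-cytometric in vitro micronucleus assay (Litron MicroFlow) in CHO-K1 cells in 96-well plates, 19 concentrations (4.5-200 µM, n=1 per concentration). Without S9, cells were exposed for 24 h and sampled at 48 h. With Aroclor 1254-induced rat liver S9, cells were exposed for 3-4 h and sampled at 27-28 h. Read-outs are %MN and %hypodiploid nuclei relative to nucleated events, and relative survival as the nuclei-to-bead ratio versus the 1% DMSO vehicle control (x100).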

CHO-K1 [2] = assay: micronucleus frequency (% of nucleated events); higher = more micronuclei (genotoxic)
CHO-K1 [3] = assay: hypodiploid nuclei frequency (% of nucleated events); higher = more hypodiploid events (aneugenic)
Procedure: as §1
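Wherever hypodiploid nuclei frequency (% of nucleated events) is given: hypodiploid nuclei gated on a flow cytometer with 488 nm excitation after SYTOX Green staining, cultures at 37 °C, positive controls vinblastine without S9 and cyclophosphamide with S9.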
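Wherever micronucleus frequency (% of nucleated events) is given: cells lysed with nuclei stained by SYTOX Green, then micronucleus-gated events counted against nucleated events by flow cytometry with 488 nm excitation.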
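Wherever relative survival (nuclei to bead ratio vs DMSO control) is given: Lysed-cell nuclei stained with SYTOX Green and counted against counting beads by flow cytometry at 488 nm excitation, with vinblastine (no S9) and cyclophosphamide (plus S9) as positive controls.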

OCCCl [2-Chloroethanol]
Details | hypodiploid nuclei frequency, CHO-K1 [3] [%] | micronucleus frequency, CHO-K1 [2] [%] | relative survival, CHO-K1 [1]
concentration: 4.48 (µM), S9 metabolic activation: with S9, exposure time: 3-4 hours | 0.22 | 1.14 | 59.2
concentration: 4.48 (µM), S9 metabolic activation: without S9, exposure time: 24 hours | 0.6 | 1.78 | 83.2
concentration: 5.6 (µM), S9 metabolic activation: with S9, exposure time: 3-4 hours | 0.22 | 1.26 | 71.2
concentration: 5.6 (µM), S9 metabolic activation: without S9, exposure time: 24 hours | 0.54 | 1.46 | 89
concentration: 7 (µM), S9 metabolic activation: with S9, exposure time: 3-4 hours | 0.3 | 1.2 | 61
concentration: 7 (µM), S9 metabolic activation: without S9, exposure time: 24 hours | 0.9 | 1.68 | 104
concentration: 8.75 (µM), S9 metabolic activation: with S9, exposure time: 3-4 hours | 0.16 | 0.86 | 83.1
concentration: 8.75 (µM), S9 metabolic activation: without S9, exposure time: 24 hours | 0.68 | 1.62 | 105
concentration: 10.9 (µM), S9 metabolic activation: with S9, exposure time: 3-4 hours | 0.28 | 1.56 | 76.8
concentration: 10.9 (µM), S9 metabolic activation: without S9, exposure time: 24 hours | 0.56 | 2.06 | 93.6
concentration: 13.7 (µM), S9 metabolic activation: with S9, exposure time: 3-4 hours | 0.22 | 1.36 | 88
concentration: 13.7 (µM), S9 metabolic activation: without S9, exposure time: 24 hours | 0.88 | 1.86 | 87.2
concentration: 17.1 (µM), S9 metabolic activation: with S9, exposure time: 3-4 hours | 0.3 | 1.44 | 90.2
concentration: 17.1 (µM), S9 metabolic activation: without S9, exposure time: 24 hours | 0.58 | 1.48 | 87.2
concentration: 21.4 (µM), S9 metabolic activation: with S9, exposure time: 3-4 hours | 0.4 | 2.04 | 92.6
concentration: 21.4 (µM), S9 metabolic activation: without S9, exposure time: 24 hours | 0.6 | 1.12 | 103
concentration: 26.7 (µM), S9 metabolic activation: with S9, exposure time: 3-4 hours | 0.34 | 1.18 | 82.2
concentration: 26.7 (µM), S9 metabolic activation: without S9, exposure time: 24 hours | 1.04 | 1.88 | 115
concentration: 33.4 (µM), S9 metabolic activation: with S9, exposure time: 3-4 hours | 0.24 | 1.44 | 82.7
concentration: 33.4 (µM), S9 metabolic activation: without S9, exposure time: 24 hours | 0.66 | 2.34 | 93.6
concentration: 41.7 (µM), S9 metabolic activation: with S9, exposure time: 3-4 hours | 0.24 | 1.68 | 91.3
concentration: 41.7 (µM), S9 metabolic activation: without S9, exposure time: 24 hours | 0.74 | 2.14 | 95
concentration: 52.2 (µM), S9 metabolic activation: with S9, exposure time: 3-4 hours | 0.26 | 1.38 | 76.6
concentration: 52.2 (µM), S9 metabolic activation: without S9, exposure time: 24 hours | 0.62 | 1.84 | 98.1
concentration: 65.2 (µM), S9 metabolic activation: with S9, exposure time: 3-4 hours | 0.28 | 1.16 | 64
concentration: 65.2 (µM), S9 metabolic activation: without S9, exposure time: 24 hours | 0.84 | 1.8 | 111
concentration: 81.5 (µM), S9 metabolic activation: with S9, exposure time: 3-4 hours | 0.38 | 2 | 86.9
concentration: 81.5 (µM), S9 metabolic activation: without S9, exposure time: 24 hours | 0.82 | 2.48 | 126
concentration: 102 (µM), S9 metabolic activation: with S9, exposure time: 3-4 hours | 0.26 | 1.68 | 80.2
concentration: 102 (µM), S9 metabolic activation: without S9, exposure time: 24 hours | 0.72 | 2.68 | 102
concentration: 127 (µM), S9 metabolic activation: with S9, exposure time: 3-4 hours | 0.22 | 1.3 | 91.8
concentration: 127 (µM), S9 metabolic activation: without S9, exposure time: 24 hours | 1.14 | 2.3 | 111
concentration: 159 (µM), S9 metabolic activation: with S9, exposure time: 3-4 hours | 0.4 | 1.14 | 108
concentration: 159 (µM), S9 metabolic activation: without S9, exposure time: 24 hours | 1.42 | 2.7 | 111
concentration: 199 (µM), S9 metabolic activation: with S9, exposure time: 3-4 hours | 0.36 | 1.38 | 94.2
concentration: 199 (µM), S9 metabolic activation: without S9, exposure time: 24 hours | 1.4 | 2.5 | 100
